Laboratory results as given in PubChem BioAssay AID1468 (National Center for Advancing Translational Sciences (NCATS), 2008).
In all, about 280,000 compounds went through this assay and about 1,100 (0.39%) were called active. This list was built around the results that the source calls inconclusive (neither active nor inactive); the mix of calls is not that of the screen. Calls come from the whole dose curve; as a rule, active = well fitted inhibition curve with a large enough effect; inconclusive = small, poorly fitted or top-dose-only effect, or effect the other way; inactive = flat fitted curve, though single readings scatter. Potencies of inconclusive entries are left out as doubtful fits. More than one record can exist for a structure, and the calls need not agree.
% is set by controls: 0 for no effect and ±100 for the full control effect; potency is the fitted concentration of half-maximal effect; tags give direction and shape of the fitted curve.
Note: nearly all actives have a fitted effect of over 55% in size.

These compounds were tested against Microtubule-associated protein tau (Homo sapiens) (UniProt P10636) (assay: qHTS for Inhibitors of Tau Fibril Formation, Fluorescence Polarization). Conditions: K18 P301L tau heparin fibrillization, Alexa594 FP, 6 h; series mostly up to 57.7 µM; activity, negative = inhibition: at the top concentration.
UniProt P10636, sequence (P10636 whole entry, looked up): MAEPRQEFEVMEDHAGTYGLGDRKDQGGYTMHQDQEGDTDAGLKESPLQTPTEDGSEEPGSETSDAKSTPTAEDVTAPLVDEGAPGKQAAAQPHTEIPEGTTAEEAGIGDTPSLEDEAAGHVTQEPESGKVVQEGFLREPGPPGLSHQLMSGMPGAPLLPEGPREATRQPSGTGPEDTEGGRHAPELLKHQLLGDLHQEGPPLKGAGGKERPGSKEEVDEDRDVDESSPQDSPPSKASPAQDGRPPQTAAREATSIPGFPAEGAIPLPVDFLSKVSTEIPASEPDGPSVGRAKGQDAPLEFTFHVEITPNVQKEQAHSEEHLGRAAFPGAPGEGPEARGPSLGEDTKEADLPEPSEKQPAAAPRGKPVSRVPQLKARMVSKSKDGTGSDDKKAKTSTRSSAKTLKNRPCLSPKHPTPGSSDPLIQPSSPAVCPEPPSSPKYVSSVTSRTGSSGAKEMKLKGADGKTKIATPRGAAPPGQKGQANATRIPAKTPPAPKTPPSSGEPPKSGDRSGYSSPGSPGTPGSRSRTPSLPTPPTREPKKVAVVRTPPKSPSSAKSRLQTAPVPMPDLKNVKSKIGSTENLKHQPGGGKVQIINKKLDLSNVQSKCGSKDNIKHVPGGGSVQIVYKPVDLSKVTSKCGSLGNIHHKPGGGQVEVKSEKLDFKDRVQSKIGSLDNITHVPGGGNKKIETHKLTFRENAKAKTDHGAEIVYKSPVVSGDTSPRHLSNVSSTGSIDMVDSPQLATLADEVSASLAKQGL
Method in brief: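 Heparin (20 uM) drove fibril formation of recombinant tau K18 P301L, 15 uM unlabeled with 0.24 uM Alexa 594 label, for 6 hr at 37 C in 100 mM sodium acetate pH 7. Fluorescence polarization (555/632 nm) read 1 hr after 30 uM ThT.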
For Cc1ccc(N=C(NOCc2ccc(Cl)cc2Cl)c2nonc2N)c(C)c1, the Potency was inconclusive [inhibitor, partial curve]. For O=C(/C=C/c1cccs1)Nc1ccc(N2CCOCC2)c(S(=O)(=O)Nc2ccccc2Cl)c1, the Potency was inconclusive [inhibitor, single point]. For CCOC(=O)c1ccc(NC(=S)N2CCCC(C(=O)OCC)C2)cc1 (centres undefined), the “activity, negative = inhibition” value was inactive: -0.0068%. With CC(/C=N/NC(=O)c1cc(-c2ccc(C)s2)[nH]n1)=C\c1ccccc1 the Potency was inconclusive [inhibitor, full curve, poor fit]. In the case of Oc1ccc(NCc2ccccc2OCc2ccccc2F)cc1, the Potency is reported as active: 22.4 µM. With CC(=O)Nc1ccc(NC(=O)C/C(C)=N/NC(N)=S)cc1 the “activity, negative = inhibition” value was inactive: -5.43%. For CC(=O)c1ccc(NC(=O)CCCSc2nc(-c3ccco3)cc(C(F)(F)F)n2)cc1, the Potency was inconclusive [inhibitor, partial curve, poor fit]. CN(c1ccccc1)S(=O)(=O)c1cccc(NC(=O)COC(=O)C2CCCCC2)c1 was tested, and the Potency was inconclusive [inhibitor, partial curve, poor fit]. With Cc1cc(C(F)(F)F)nn1Cc1ccc(C(=O)NCc2ccco2)o1 the Potency was inconclusive [inhibitor, single point]. In the case of NC(=O)c1c(NC(=O)c2cnccn2)sc2c1CCCC2, the “activity, negative = inhibition” value is reported as inactive: 0.287%. In the case of Cc1cccc(N(CC(=O)NCc2ccccc2)C(=O)Cn2nnc(-c3ccc(C)o3)n2)c1, the “activity, negative = inhibition” value is reported as inactive: 0.746%. In the case of CCOC(=O)c1cccc(Nc2cc(-c3ccccc3)ncn2)c1, the Potency is reported as inconclusive [inhibitor, partial curve]. For OC[C@@H]1[C@@H](c2ccc(Cl)cc2)C(c2ccc(F)cc2)=NN1c1ccccc1, the “activity, negative = inhibition” value was inactive: 14% [at 81.3 µM]. For Cn1c(=O)c2c(nc(NCc3ccccc3)n2Cc2ccccc2)n(C)c1=O, the Potency was inconclusive [activator, single point]. CCN(CC)c1nc2c(c(=O)n(C)c(=O)n2C)n1CC(=O)c1ccccc1 was tested, and the “activity, negative = inhibition” value was inactive: -3.17%. For FC(F)(F)c1cccc(NC(=S)NCc2ccc(Cl)cc2)c1, the Potency was inconclusive [inhibitor, partial curve]. For Cc1c(Cl)cccc1-c1ccc(C(=O)Nc2ccc(F)cc2)o1, the Potency was inconclusive [inhibitor, partial curve]. In the case of Cc1cc(NC(=O)CCC(=O)N(c2ccccc2)C(C(=O)NC2CCCCC2)c2cccs2)no1 (centres undefined), the Potency is reported as inconclusive [inhibitor, single point]. For Cc1ccccc1NC(=O)C1CCN(c2cc(-c3ccccc3)nc3ncnn23)CC1, the Potency was inconclusive [inhibitor, full curve, poor fit]. In the case of COc1ccc(C(=O)Oc2ccc[nH]c2=O)cc1, the “activity, negative = inhibition” value is reported as inactive: 3.86%. COc1ccc(F)cc1S(=O)(=O)NCCc1csc2nc(-c3cccc(C)c3)nn12 was tested, and the Potency was inconclusive [inhibitor, single point]. With O=C(O)CNC(=O)CC1S/C(=N/N=C2\CSC(=O)N2)NC1=O (centres undefined) the Potency was inconclusive [inhibitor, partial curve]. For Cc1ccc(C(C#N)c2ccc(C(=O)c3ccc(F)cc3)cc2)cc1 (centres undefined), the “activity, negative = inhibition” value was inactive: -1.49%. In the case of O=C(c1ccccc1)N1N=C(c2ccco2)CC1c1cccs1 (centres undefined), the “activity, negative = inhibition” value is reported as inactive: -1.76%. For CN(C)CCNC(=O)C(=O)C1C(=O)Nc2ccccc21 (centres undefined), the Potency was inconclusive [inhibitor, single point]. In the case of S=C(N/N=C/c1ccc(Cl)c(Cl)c1)Nc1ccccc1Cl, the Potency is reported as inconclusive [inhibitor, partial curve]. With NC(=O)c1c(NC(=O)c2ccc(S(=O)(=O)N3CCOCC3)cc2)sc2c1CCCCC2 the Potency was inconclusive [inhibitor, single point]. In the case of Cc1ccc(C(=O)Nc2ncnc3sc4c(c23)CCCCC4)cc1, the Potency is reported as inconclusive [inhibitor, partial curve, poor fit]. For CCOc1ccc2[nH]c(=O)c(CN(Cc3ccco3)C(CC)c3nnnn3Cc3ccccc3)cc2c1 (centres undefined), the Potency was inconclusive [inhibitor, single point]. With N#CCC(=O)Nc1ccc(C(=O)OCC(=O)Nc2ccccc2-c2ccccc2)cc1 the Potency was inconclusive [inhibitor, single point]. With O=C(Nc1cccc(-c2nc3ccccc3o2)c1)c1ccc(-c2ccc(Br)cc2)o1 the Potency was inconclusive [inhibitor, partial curve]. With CC(=O)N1CCc2c(sc3c2c(=O)n(-c2ccccc2)c(=O)n3CC(=O)Nc2cccc(C)c2)C1 the Potency was inconclusive [inhibitor, single point]. For CC1(C)CC(=O)C(CC2=C(O)CC(C)(C)CC2=O)=C(O)C1, the Potency was active: 39.8 µM. In the case of Cc1cc(C)cc(NS(=O)(=O)c2ccc(Oc3ncc(C(F)(F)F)cc3Cl)cc2)c1, the Potency is reported as inconclusive [inhibitor, single point]. In the case of CCOc1ccc(CNS(=O)(=O)c2c(C(=O)N3CCC(C)CC3)c(C)n(C)c2C)cc1OC, the “activity, negative = inhibition” value is reported as inactive: 3.86%. With Cc1c(C(=O)OC2CCCC2)[nH]c2c1C(=O)CC(c1ccc(Cl)cc1)C2 (centres undefined) the Potency was inconclusive [inhibitor, single point]. For COc1ccc(NC(=O)CC2SC(=O)NC2=O)cc1 (centres undefined), the Potency was inconclusive [inhibitor, single point]. For CCCCCCCCCCCCCCC[C@@H](O)[C@H](CO)NC(C)=O, the Potency was “inactive”. Cc1nc(N2C(=O)c3oc4ccccc4c(=O)c3C2c2cccc(OCCC(C)C)c2)sc1C (centres undefined) was tested, and the “activity, negative = inhibition” value was inactive: 5.9%. For Oc1ccc(/C=N/NC(=S)Nc2cccnc2)c(O)c1, the Potency was inconclusive [activator, partial curve]. With COC(=O)c1nnn(CC(=O)NC(=O)Nc2cccc(C)c2C)c1C(=O)OC the Potency was “inactive”. Cc1ccc(C)n1Cc1ccc(C(=O)O)cc1 was tested, and the Potency was inconclusive [inhibitor, single point]. With COc1ccc2c(c1)CCc1c(C(=O)Nc3ccc(F)c(Cl)c3)noc1-2 the Potency was inconclusive [inhibitor, single point]. With Cc1ccc(CNC(=O)c2cc3c(s2)-c2ccccc2SC3)cc1 the Potency was inconclusive [inhibitor, single point].
